{"source": "paper PMC4336329", "about": "(PLoS ONE, 2015)", "note": "Among all 310,000 compounds or so, about 2,200 (0.71%) showed an effect of 50% or more. Effects have a minus sign here. The list shows a part of the results."}
{"biological_target": "human ether-à-go-go-related gene (hERG) potassium channel (human, UniProt Q12809)", "sequence (Q12809 whole entry, looked up)": "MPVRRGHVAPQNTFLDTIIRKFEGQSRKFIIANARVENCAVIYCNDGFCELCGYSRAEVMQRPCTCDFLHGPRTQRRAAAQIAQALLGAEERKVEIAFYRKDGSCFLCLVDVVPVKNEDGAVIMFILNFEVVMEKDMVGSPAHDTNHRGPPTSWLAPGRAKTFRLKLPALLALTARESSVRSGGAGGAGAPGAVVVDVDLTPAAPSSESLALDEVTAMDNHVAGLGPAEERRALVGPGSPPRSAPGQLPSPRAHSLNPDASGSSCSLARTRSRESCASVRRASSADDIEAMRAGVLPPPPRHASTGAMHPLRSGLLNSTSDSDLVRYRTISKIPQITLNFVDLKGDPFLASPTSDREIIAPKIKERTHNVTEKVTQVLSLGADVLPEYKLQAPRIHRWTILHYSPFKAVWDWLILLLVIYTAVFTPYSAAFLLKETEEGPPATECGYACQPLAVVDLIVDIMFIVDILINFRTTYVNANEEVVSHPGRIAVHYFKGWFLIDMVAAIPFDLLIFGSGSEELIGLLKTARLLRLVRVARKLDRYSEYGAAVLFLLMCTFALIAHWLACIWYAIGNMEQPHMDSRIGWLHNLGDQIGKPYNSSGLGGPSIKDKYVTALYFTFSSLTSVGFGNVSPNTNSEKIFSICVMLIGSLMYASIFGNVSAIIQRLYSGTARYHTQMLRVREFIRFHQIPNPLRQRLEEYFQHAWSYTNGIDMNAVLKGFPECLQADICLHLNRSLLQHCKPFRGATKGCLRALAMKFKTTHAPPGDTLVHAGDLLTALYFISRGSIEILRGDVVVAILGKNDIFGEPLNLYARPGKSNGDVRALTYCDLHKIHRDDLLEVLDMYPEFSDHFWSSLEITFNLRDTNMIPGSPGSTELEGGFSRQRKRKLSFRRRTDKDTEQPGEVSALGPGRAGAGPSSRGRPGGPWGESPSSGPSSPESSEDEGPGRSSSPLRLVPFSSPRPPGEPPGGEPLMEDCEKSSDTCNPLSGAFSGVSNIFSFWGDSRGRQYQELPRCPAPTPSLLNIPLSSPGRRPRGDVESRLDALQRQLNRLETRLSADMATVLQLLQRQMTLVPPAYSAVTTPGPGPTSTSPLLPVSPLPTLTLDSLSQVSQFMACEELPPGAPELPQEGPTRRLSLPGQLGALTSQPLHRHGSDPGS", "experiment": "primary screen, population patch clamp on CHO cells stably expressing hERG", "units": {"hERG current change (%, negative = inhibition) at 1uM": "%"}}
{"compound": "COc1ccc(N(C(=O)c2cnccn2)C(C(=O)NCc2ccccc2)c2ccc(O)cc2)cc1", "note": "(centres unmarked)", "hERG current change (%, negative = inhibition) at 1uM": 6.91}
{"compound": "Br.Cc1ccc(S(=O)(=O)CCSC(=N)N)cc1", "hERG current change (%, negative = inhibition) at 1uM": 7.72}
{"compound": "CC1(C)NC(=O)N(CC(=O)N2CCN(S(=O)(=O)c3ccccc3F)CC2)C1=O", "hERG current change (%, negative = inhibition) at 1uM": 13.2}
{"compound": "O=C(NCc1ccccn1)c1n[nH]c(=O)c2ccccc12", "hERG current change (%, negative = inhibition) at 1uM": 17.4}
{"compound": "CCN1C(=NCc2cc(OC)c(OC)c(OC)c2)N[C@@H](c2ccccc2)[C@H](C(=O)OC)[C@H]1C", "hERG current change (%, negative = inhibition) at 1uM": 11.6}
{"compound": "CC(C)(C)C(=O)CNS(=O)(=O)c1ccc(S(=O)(=O)NC2CC2)cc1", "hERG current change (%, negative = inhibition) at 1uM": 4.18}
{"compound": "O=C(CCC(=O)Nc1ccc(F)cc1)N/N=C/c1cccc(Br)c1", "hERG current change (%, negative = inhibition) at 1uM": 9.59}
{"compound": "CCOC(=O)N1CCN(CCC(=O)Nc2cc([N+](=O)[O-])ccc2OC)CC1", "hERG current change (%, negative = inhibition) at 1uM": -1.82}
{"compound": "CC(C)(C)NC(=O)C(OC(=O)c1cccs1)c1ccc(C#N)cc1", "note": "(centres unmarked)", "hERG current change (%, negative = inhibition) at 1uM": 8.44}
{"compound": "O=C(N/N=C1\\C/C(=N\\NC(=O)c2ccncc2)c2ccccc21)c1ccncc1", "hERG current change (%, negative = inhibition) at 1uM": 3.72}
{"compound": "CCOc1ccc(-n2c(C)nc3cc(C(=O)NCCCN4CCOCC4)ccc32)cc1", "hERG current change (%, negative = inhibition) at 1uM": -1.64}
{"compound": "COC(c1ccccc1)c1nnc(CCC(=O)NCc2cccc(-n3cccn3)c2)o1", "note": "(centres unmarked)", "hERG current change (%, negative = inhibition) at 1uM": 4.04}
{"compound": "CCOCCCNC(=O)C(c1ccc(C)cc1)N(Cc1cccs1)C(=O)c1ccccc1O", "note": "(centres unmarked)", "hERG current change (%, negative = inhibition) at 1uM": 7.18}
{"compound": "CCOc1ccc(NC(=O)CSc2nc(=O)n(Cc3cccnc3)c3c2CCC3)cc1", "hERG current change (%, negative = inhibition) at 1uM": 5.84}
{"compound": "CC(C)N(Cc1nnc(-c2ccc(Cl)cc2)o1)C(=O)C1=COCCO1", "hERG current change (%, negative = inhibition) at 1uM": 6.57}
{"compound": "O=C(c1cc(F)ccc1F)C1CCCN(Cc2cccn2-c2ccccn2)C1", "note": "(centres unmarked)", "hERG current change (%, negative = inhibition) at 1uM": -83.1}
{"compound": "O=C(NCc1ccccn1)C1CCN(C(=O)c2cc3sccc3n2Cc2ccc(F)cc2)CC1", "hERG current change (%, negative = inhibition) at 1uM": 3.64}
{"compound": "COc1nc(/C=C/N(C)C)c([N+](=O)[O-])c(OC)n1", "hERG current change (%, negative = inhibition) at 1uM": 13.2}
{"compound": "COc1ccc(C(=O)Nc2ccccn2)cc1", "hERG current change (%, negative = inhibition) at 1uM": 12.3}
{"compound": "CCCOc1ccc(C(=O)CCNC(Cc2c[nH]c3ccccc23)C(=O)O)cc1", "note": "(centres unmarked)", "hERG current change (%, negative = inhibition) at 1uM": 15.5}
{"compound": "CC(=O)Nc1ccc(S(=O)(=O)NCC(=O)N2CCN(S(=O)(=O)c3cccs3)CC2)cc1", "hERG current change (%, negative = inhibition) at 1uM": 8.45}
{"compound": "Cn1c(SCC2CCCO2)nnc1-c1ccc([N+](=O)[O-])cc1", "note": "(centres unmarked)", "hERG current change (%, negative = inhibition) at 1uM": -8.05}
{"compound": "Cc1ccccc1C(=O)O", "hERG current change (%, negative = inhibition) at 1uM": 2.47}
